According to patent publication US20220348651A1, “ENTPD2 ANTIBODIES, COMBINATION THERAPIES, AND METHODS OF USING THE ANTIBODIES AND COMBINATION THERAPIES” (Novartis AG, priority 2019, published 2022):
Like-named read-outs stand apart in the source and are kept apart here.

How the values were obtained:
Human ENTPD1 = biological target: T1, Human ENTPD1 (Homo sapiens, UniProt P49961); assay: Cross reactivity: FACS binding to human ENTPD1 expressing NIH/3T3 cells; conditions: NIH/3T3-ENTPD1 cells, 50 nM antibody
T1 construct: expressed in transfected cells; host or cells: NIH/3T3 (retroviral transduction, FACS-sorted)
T1 sequence (P49961 1-510): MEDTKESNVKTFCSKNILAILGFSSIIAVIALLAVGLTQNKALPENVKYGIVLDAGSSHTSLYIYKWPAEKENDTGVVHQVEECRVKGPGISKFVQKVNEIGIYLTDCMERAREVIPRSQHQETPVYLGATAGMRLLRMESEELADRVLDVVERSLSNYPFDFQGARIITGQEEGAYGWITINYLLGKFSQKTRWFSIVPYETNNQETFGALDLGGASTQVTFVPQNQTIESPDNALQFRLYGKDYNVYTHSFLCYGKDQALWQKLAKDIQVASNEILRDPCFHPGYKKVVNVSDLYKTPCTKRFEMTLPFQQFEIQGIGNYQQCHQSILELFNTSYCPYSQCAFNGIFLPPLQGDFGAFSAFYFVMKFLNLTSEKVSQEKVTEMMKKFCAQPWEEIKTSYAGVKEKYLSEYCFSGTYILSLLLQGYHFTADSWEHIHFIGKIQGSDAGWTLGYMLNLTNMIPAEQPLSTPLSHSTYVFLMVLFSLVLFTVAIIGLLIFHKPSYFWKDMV
Protocol: (§1) FACS screening: Specific binding of candidate antibodies to endogenously expressed ENTPD2 was assessed by flow cytometry. Cells were rinsed thoroughly with 1×PBS and treated with Accutase (Millipore #SCR005) to lift from growth plates and resuspended at approximately 1×10^5 cells/90 μL in 1× FACS buffer (2% FBS+0.1% NaN3 in PBS). In a 96-well U-bottom plate, 10 μL of 10× antibody solution in FACS buffer was pre-seeded and 90 μL of cell suspension was added. Cell were incubated for 30 minutes at 4° C., washed 1× with cold PBS and resuspended in 100 μL of 1:500 secondary antibody 1× FACS buffer (Allophycocyanin conjugated F(ab′)2 goat anti-human IgG, Fcγ specific; Jackson Immunoresearch, Cat#109-136-098). After additional incubation for 15 min at 4° C., cells were washed twice with PBS and resuspended in 100 μL of 1×FACS buffer with 4 μg/mL propidium iodide (Life Technologies, Cat#P3566). Geometric mean fluorescence intensity was calculated on live single cells using FlowJo software.
(§2) Cross reactivity Human ENTPD1 (NP_001767) expressing NIH/3T3 cells were generated using a retroviral transduction approach. 72 hrs post transduction, engineered cells were stained with the anti-Human CD39/ENTPD1 APC-conjugated Antibody (R&D systems, Minneapolis, Minn.) and live cells that expressed human ENTPD1 were separated from the rest of the population via fluorescence activated cell sorting. Stable expression of ENTPD1 was periodically re-confirmed by FACS with the above described anti-Human CD39/ENTPD1 APC-conjugated Antibody (1:100).

[1] = cynomolgus monkey, in vivo, iv
mouse ENTPD2 = biological target: T2, mouse ENTPD2 (Mus musculus, UniProt O55026); assay: Antibody specificity: binding to mouse ENTPD2
T2 construct: residues 29-462 of mouse or rat ENTPD2 (the extracellular domain); mouse IgK signal peptide (N); His6; made in house; host or cells: FreeStyle 293-F cells, transient transfection
T2 sequence (O55026 29-462): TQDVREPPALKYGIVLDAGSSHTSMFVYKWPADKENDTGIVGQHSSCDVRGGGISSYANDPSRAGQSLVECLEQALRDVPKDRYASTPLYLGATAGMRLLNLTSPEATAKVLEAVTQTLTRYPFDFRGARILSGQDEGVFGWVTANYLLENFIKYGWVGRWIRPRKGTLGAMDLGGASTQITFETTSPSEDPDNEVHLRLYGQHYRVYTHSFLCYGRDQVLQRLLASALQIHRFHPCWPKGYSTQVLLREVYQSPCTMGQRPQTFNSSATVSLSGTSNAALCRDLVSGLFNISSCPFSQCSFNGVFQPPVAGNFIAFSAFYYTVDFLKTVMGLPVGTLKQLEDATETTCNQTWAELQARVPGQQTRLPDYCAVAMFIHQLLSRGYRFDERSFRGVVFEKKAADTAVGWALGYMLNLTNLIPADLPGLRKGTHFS
Source text: Antibody specificity for mAbl-mAblO was confirmed. […] Antibodies mAb8, mAb9, and mAb10 show weak affinity to mouse ENTPD2. None of the selected antibodies bind to rat ENTPD2.

[2] = test system: cynomologus (cyno) ENTPD2; assay: Biacore (SPR) affinity to cyno ENTPD2 ECD; format: binding, cynomolgus monkey; conditions: 25° C.
Protocol: Biacore Screening: Affinity was measured by determining the kinetic rate constants using surface plasmon resonance (SPR) on a Biacore T200 or T100 with the T200 sensitivity upgrade instrument (Biacore, GE Healthcare). Antibodies were captured on CM5 sensor chips (Biacore, GE Healthcare) prepared with a mouse anti-human IgG Fc antibody (ThermoFisher catalogue #05-4200) amine coupled to the surface. […] ENTPD2 analytes were allowed to associate for 180 s and dissociate for up to 1800 s depending on the off-rate of the antibody at a flow rate of 30 μL/min. The running buffer was PBS pH 7.2 (prepared from a Corning 10X stock, cat#46-013-CM)+0.05% Tween 20. Regeneration was accomplished with 30 s injections of 3 or 4 M MgCl2 to remove all the captured antibody and remaining complex from the surface, after which fresh antibody was captured. The raw data were analyzed using Biacore T200 Evaluation Software version 1.0 and fit to a 1:1 binding model, with all parameters set to fit globally except for RI, which was set to fit locally.

NIH/3T3 cells = assay: Cross reactivity: FACS binding to NIH/3T3 control cells; conditions: 50 nM antibody
Protocol: as §1, §2

B1: mAb1: humanized anti-human ENTPD2 human IgG1 from mAb17; heavy chain SEQ ID NO: 12, light chain SEQ ID NO: 23 (antibody)
heavy: EVQLVQSGAEVKKPGESLKISCKASGYTFTDYNMDWVRQMPGKGLEWMGDINPKYDISTYNQQFKGQVTISADKSIRTAYLQWSSLKASDTAMYYCARRGFFLYYGINYYYFDVWGQGTLVTVSSASTKGPSVFPLAPSSKSTSGGTAALGCLVKDYFPEPVTVSWNSGALTSGVHTFPAVLQSSGLYSLSSVVTVPSSSLGTQTYICNVNHKPSNTKVDKRV[here human IgG1 Fc without letters]
light: DIQLTQSPSSLSASVGDRVTITCSASSSVSYIHWFQQKPGKAPKLLIYSTSNLASGVPSRFSGSGSGTFFTLTISSLQPEDFATYFCHQWSSYPWTFGQGTKVEIKRTVAAPSVFIFPPSDEQLKSGTASVVCLLNNFYPREAKVQWKVDNALQSGNSQESVTEQDSKDSTYSLSSTLTLSKADYEKHKVYACEVTHQGLSSPVTKSFNRGEC
Human ENTPD1
  Apparent FACS binding at 50 nM: No binding
[1]
  AUC(0 − 336 h)/D: 3′160 μg*h/mL/mg/kg
  AUC(0 − inf)/D: 4′083 μg*h/mL/mg/kg
  Cmax/D: 32 µg/mL/mg/kg
[1]; 3 mg/kg
  AUC(0 − 336 h)/D: 1′894 μg*h/mL/mg/kg
  AUC(0 − inf)/D: 2′042 μg*h/mL/mg/kg
  Cmax/D: 33 µg/mL/mg/kg
[1]; 30 mg/kg
  AUC(0 − 336 h)/D: 3′145 μg*h/mL/mg/kg
  AUC(0 − inf)/D: 3′811 μg*h/mL/mg/kg
  Cmax/D: 42 µg/mL/mg/kg
Mouse ENTPD2
  affinity / cross-reactivity to mouse ENTPD2: not mouse ENTPD2 cross-reactive
Mouse ENTPD2; Mouse ENTPD2
  BIACore KD: No binding
[2]
  ka: 360000 M⁻¹ s⁻¹
  kd: 0.0012 s⁻¹
NIH/3T3 cells
  Apparent FACS binding at 50 nM: No binding
